From PubChem BioAssay AID1159614 (National Center for Advancing Translational Sciences (NCATS), 2016)
In all, about 45,000 compounds went through this assay and about 65 (0.1%) were called active. Calls follow the shape of the dose curve; as a rule, active = well fitted activation curve with a large enough effect; inconclusive = small, poorly fitted or top-dose-only effect; inactive = no such curve, though single readings can be large or run the other way. The list shows a part of the results.

These molecules were tested against Galactocerebrosidase (Homo sapiens) (UniProt P54803) (assay: A Novel Cell-Based Assay to Identify Small Molecules for B -Galactocerebrosidase). Conditions: 145M-Twi-hGALC-G270D cells (Twitcher mouse brain line with human GALC G270D), HMU-beta-Gal fluorescence, 48 h; series mostly up to 57.5 µM; activation: at the top concentration.
Summary of the method: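 Mutant human GALC (G270D), stably expressed in a Twitcher mouse brain cell line lacking endogenous GALC, is measured in live-treated cells via 6-hexadecanoylamino-4-methylumbelliferyl-β-galactoside hydrolysis (0.1 mM final, pH 5.2) with fluorescent detection.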
Also: 0% is about no effect; nearly all actives have a fitted effect of over 65% in size.

UniProt P54803, sequence (P54803 whole entry, looked up): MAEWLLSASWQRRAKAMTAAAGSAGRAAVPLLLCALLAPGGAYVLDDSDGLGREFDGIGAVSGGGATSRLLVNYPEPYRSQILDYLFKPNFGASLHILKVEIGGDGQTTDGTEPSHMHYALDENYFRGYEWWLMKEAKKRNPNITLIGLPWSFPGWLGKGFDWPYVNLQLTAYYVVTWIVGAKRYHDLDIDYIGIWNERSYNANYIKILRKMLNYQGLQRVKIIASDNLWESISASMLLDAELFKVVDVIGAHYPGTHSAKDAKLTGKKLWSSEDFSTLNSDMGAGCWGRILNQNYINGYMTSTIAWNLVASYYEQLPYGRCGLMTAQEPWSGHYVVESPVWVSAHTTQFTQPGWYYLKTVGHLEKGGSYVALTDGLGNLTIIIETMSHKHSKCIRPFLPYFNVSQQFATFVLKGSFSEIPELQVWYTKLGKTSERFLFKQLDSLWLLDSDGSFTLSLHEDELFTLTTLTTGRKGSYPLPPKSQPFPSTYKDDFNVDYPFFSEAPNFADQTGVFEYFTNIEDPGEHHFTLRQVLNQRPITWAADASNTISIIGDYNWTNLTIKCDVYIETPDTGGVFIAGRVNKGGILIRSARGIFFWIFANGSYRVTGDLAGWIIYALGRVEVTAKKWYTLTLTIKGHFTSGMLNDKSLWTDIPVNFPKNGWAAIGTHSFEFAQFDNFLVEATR

activation, inactive:
CCOc1ccc(CCNC(=O)c2oc(=O)c3ccccc3c2-c2ccc(C)cc2)cc1OCC -4.19%, Cc1ccc(NC(=O)CCS(=O)(=O)c2ccc(Br)s2)c(Br)c1 -8.85%, CC(C)(C)c1ccc(C(=O)NCCc2csc(-c3ccc(Cl)cc3)n2)cc1 -12.8%, Cc1nn(C)cc1CN(C)C(=O)c1cc(-c2ccccc2)nc2ccc(Br)cc12 -8.4%, O=C(Nc1cccc(C(F)(F)F)c1)c1cnn(-c2cccc(F)c2)c1C1CCNCC1 -19.8%, Cc1ccc(C)c(N2CCN(C(=O)CN3C(=O)COc4ccc(S(=O)(=O)N5CCCC5)cc43)CC2)c1 -23%, CCc1cccc(NC(=O)CN(c2ccc(C)c(C)c2)S(=O)(=O)c2ccsc2C(=O)OC)c1 2.68%, COc1ccc(C(=O)NCC(c2ccco2)S(=O)(=O)c2ccc(F)cc2)cc1 (configuration not stated) -20.3%, CC(C)OCCCNc1ncnc2sc3c(c12)CCCC3 -35.9%, CCOC(=O)c1c(C)[nH]c(C)c1S(=O)(=O)N1CCC(C(=O)Nc2ccc(OCC)cc2)CC1 -8.55%, CCCCn1cc(S(=O)(=O)c2cc(C)ccc2C)c(=O)c2cc(F)c(N3CCC(C)CC3)cc21 -8.09%, Cc1ccc(C)c(Cn2c(=O)n(CCCCC(=O)NCc3ccc4c(c3)OCO4)c(=O)c3ccccc32)c1 -0.417%, CCc1ccccc1NC(=O)Nc1c(C)n(C)n(-c2ccccc2)c1=O -25.9%, CCCC(=O)Nc1cc2nn(-c3ccccc3)nc2cc1C -9.71%, CCOC(=O)c1ccc(N2C(=O)c3[nH]nc(-c4ccc(C)cc4)c3C2c2cccs2)cc1 (configuration not stated) 1.72%, CCCc1nc2nc(C)c(NS(=O)(=O)c3ccc(CC(C)C)cc3)c(=O)n2[nH]1 -7.2%, CSc1ncc(C(=O)Nc2ccccc2C(F)(F)F)c(-c2ccccc2)n1 -11.5%, CCCCN(CCCC)CCCNC(=O)Cn1cc2c(n1)-c1c(oc(C(=O)N3CCCC3)c1C)CC2 -25.8%, CCCn1c(CCC(=O)Nc2cc(OC)cc(OC)c2)nc2cccnc21 -11.7%, CCCCOc1ccc(Cn2c(=O)sc3ccccc32)cc1OC -12.7%, COC(=O)c1scc(-c2ccc(C)cc2)c1S(=O)(=O)Nc1cc(Cl)c(OC)cc1OC -12.9%, CCOC(=O)c1[nH]cnc1C(=O)Nc1cccc(OC)c1 -20.8%, Cc1ccccc1CCNC(=O)c1ccc2c(c1)nc1n2CCOC1 -0.565%, CCCn1c(CCC(=O)Nc2cc(C(=O)OC)cc(C(=O)OC)c2)nc2cccnc21 -16.1%, CCSc1ncc(Cl)c(C(=O)Nc2nc3ccc(S(C)(=O)=O)cc3s2)n1 3.91%, CCCN1CCN(c2nnc(-n3cccc3C(=O)Nc3cc(Cl)ccc3C)s2)CC1 -10.7%, COc1ccc(-n2c(=O)c3sc4ccccc4c3n(C)c2=O)cc1 -5.13%
